The results in this text go back to article PMC4336329 (PLoS ONE, 2015).

About 2,200 (0.71%) of roughly 310,000 compounds showed an effect of 50% or more. Effects have a minus sign here. This is one part of the list.

This experiment deals with human ether-à-go-go-related gene (hERG) potassium channel (human, UniProt Q12809). In words: primary screen, population patch clamp on CHO cells stably expressing hERG.
Chain of human ether-à-go-go-related gene (hERG) potassium channel (Q12809 whole entry, looked up): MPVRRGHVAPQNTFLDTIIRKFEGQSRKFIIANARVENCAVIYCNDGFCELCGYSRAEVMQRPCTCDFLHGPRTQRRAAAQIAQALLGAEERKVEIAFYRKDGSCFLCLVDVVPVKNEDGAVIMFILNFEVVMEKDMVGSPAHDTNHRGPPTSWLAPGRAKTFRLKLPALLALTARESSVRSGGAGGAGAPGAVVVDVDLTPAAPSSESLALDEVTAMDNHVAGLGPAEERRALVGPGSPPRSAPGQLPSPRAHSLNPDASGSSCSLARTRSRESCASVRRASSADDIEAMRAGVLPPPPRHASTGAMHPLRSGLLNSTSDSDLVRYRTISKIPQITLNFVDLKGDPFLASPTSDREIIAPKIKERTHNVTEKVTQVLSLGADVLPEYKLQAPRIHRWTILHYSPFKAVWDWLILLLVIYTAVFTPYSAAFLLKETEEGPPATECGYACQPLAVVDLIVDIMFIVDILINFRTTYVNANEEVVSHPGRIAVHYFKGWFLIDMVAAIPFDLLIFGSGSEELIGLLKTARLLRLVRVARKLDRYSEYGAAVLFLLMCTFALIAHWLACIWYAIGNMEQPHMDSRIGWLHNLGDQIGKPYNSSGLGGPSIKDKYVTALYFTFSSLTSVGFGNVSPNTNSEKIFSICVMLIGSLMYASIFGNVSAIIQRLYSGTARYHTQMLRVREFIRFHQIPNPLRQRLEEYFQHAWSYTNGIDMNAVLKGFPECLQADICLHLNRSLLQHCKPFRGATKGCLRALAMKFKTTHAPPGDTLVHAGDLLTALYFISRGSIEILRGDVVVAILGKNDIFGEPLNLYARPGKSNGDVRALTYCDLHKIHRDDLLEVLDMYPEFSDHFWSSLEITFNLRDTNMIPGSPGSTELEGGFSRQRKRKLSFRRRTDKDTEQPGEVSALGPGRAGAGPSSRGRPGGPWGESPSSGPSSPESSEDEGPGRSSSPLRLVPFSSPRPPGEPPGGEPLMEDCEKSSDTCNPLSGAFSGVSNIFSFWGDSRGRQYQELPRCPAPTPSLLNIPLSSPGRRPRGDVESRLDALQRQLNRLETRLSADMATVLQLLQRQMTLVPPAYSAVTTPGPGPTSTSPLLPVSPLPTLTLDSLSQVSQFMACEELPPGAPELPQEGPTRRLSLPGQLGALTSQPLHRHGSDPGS
On to `CC(=O)c1cccc(OCC(=O)c2cc(C)n(-c3cc(C)on3)c2C)c1`, for which the “hERG current change (%, negative = inhibition) at 1uM” value turned out to be 3.41%.

On to `CCOP(=O)(C#CC(C)(C)C)C1(O)CCCCC1` (stereo not drawn), for which the “hERG current change (%, negative = inhibition) at 1uM” value was found to be 3.83%.

With `Cc1ccc(C(=O)NCCCc2ccccc2)c(Cl)c1`, the “hERG current change (%, negative = inhibition) at 1uM” value is given as 11.5%.

Turning to `C=CCNC(=O)N1CCC(CO)(Cc2ccc(Cl)cc2)CC1`, the “hERG current change (%, negative = inhibition) at 1uM” value is recorded as 10.7%.

`CCCCCOc1ccc(C(=O)OCC(=O)Nc2cc(C)c(C)cc2[N+](=O)[O-])cc1`: the “hERG current change (%, negative = inhibition) at 1uM” value is on record as 5.18%.

For `Cc1onc(-c2ccccc2Cl)c1C(=O)Nc1sc2c(c1C(N)=O)CCC(C)C2` (stereo not drawn), the “hERG current change (%, negative = inhibition) at 1uM” value was determined as 21.2%.

`COC(=O)C1CCN(S(=O)(=O)CCNC(=O)c2ccc(F)cc2)CC1`: the “hERG current change (%, negative = inhibition) at 1uM” value is on record as 0.112%.

Regarding `Cc1cc(NC(=O)CCC(=O)N(c2ccc(F)cc2)C(C(=O)NC2CCCC2)c2ccc(C)o2)no1` (stereo not drawn), the “hERG current change (%, negative = inhibition) at 1uM” value was found to be 20.6%.

On to `C/C(=N\Nc1nc(C)cc(C)n1)c1ccc(C)o1`, for which the “hERG current change (%, negative = inhibition) at 1uM” value is on record as 9.51%.

For the compound `CSCC(C)N1CCC(n2nccc2NC(=O)c2ccccc2C)CC1` (stereo not drawn), the “hERG current change (%, negative = inhibition) at 1uM” value is on record as -9.65%.

With `O=C(Nc1ccc(-n2cccn2)cc1)C1CCN(Cc2ccccn2)CC1`, the “hERG current change (%, negative = inhibition) at 1uM” value stood at 12.7%.

With `FC(F)(F)c1cc(Oc2ccccc2Cl)nc(-c2ccccn2)n1`, the “hERG current change (%, negative = inhibition) at 1uM” value is given as 1.53%.

Consider `COC(=O)c1ccc(/C=N/N2C(C)CCCC2C)cc1` (stereo not drawn), for which the “hERG current change (%, negative = inhibition) at 1uM” value is recorded as 4.76%.

`COc1ccc(/C=C2\CCCC3C2=NC(=S)NC3c2ccc(OC)cc2)cc1` (stereo not drawn): the “hERG current change (%, negative = inhibition) at 1uM” value worked out at 6.2%.

For the compound `Cc1ccc(CNC(=O)c2ccc(N(C)C)cc2)cc1`, the “hERG current change (%, negative = inhibition) at 1uM” value stood at 1.58%.

As for `CC1CCc2c(sc3nc(CN4CCOCC4)nc(N4CCc5ccccc5C4)c23)C1` (stereo not drawn), the “hERG current change (%, negative = inhibition) at 1uM” value amounted to 4.9%.

Consider `CN(CCCOc1ccccc1F)Cc1ccccc1.O=C(O)C(=O)O`, for which the “hERG current change (%, negative = inhibition) at 1uM” value is -1.16%.

As to `CN(C(=O)C1CCCN(c2ncnc3c2nc2n3CCCCC2)C1)c1cccc(Cl)c1` (stereo not drawn), the “hERG current change (%, negative = inhibition) at 1uM” value is -14.5%.

Turning to `CCCOC(=O)c1ccc(Oc2c(-c3ccc(OC)cc3O)n[nH]c2C)cc1`, the “hERG current change (%, negative = inhibition) at 1uM” value was found to be 5.63%.

As for `COc1ccc(CCC(=O)NCCS(=O)(=O)N2CCN(c3ccccc3)CC2)cc1`, the “hERG current change (%, negative = inhibition) at 1uM” value stood at 2.17%.

With `COC(=O)c1c(S(N)(=O)=O)c2ccccc2n1C`, the “hERG current change (%, negative = inhibition) at 1uM” value amounted to 7.76%.

`O=C(CNC(=O)c1ccc(Cl)cc1)c1ccccc1`: the “hERG current change (%, negative = inhibition) at 1uM” value turned out to be 2.38%.

Consider `CN1CCC(=NNc2ncnc3sc4c(c23)CCCC4)CC1`, for which the “hERG current change (%, negative = inhibition) at 1uM” value was 14.6%.

For the compound `Cc1cccc(NC(=O)C2CC(O)CN2C(=O)Oc2ccccc2)c1` (stereo not drawn), the “hERG current change (%, negative = inhibition) at 1uM” value is 25.1%.

For the compound `O=C(Cc1ccccc1)O/N=C1\CCCc2ccccc21`, the “hERG current change (%, negative = inhibition) at 1uM” value turned out to be 13.1%.

For the compound `CC(C)C12CN3CCN(CC(C3)/C1=N\NC(=O)Nc1ccccc1)C2`, the “hERG current change (%, negative = inhibition) at 1uM” value is recorded as 3.99%.

In the case of `Cc1c(NS(=O)(=O)c2ccc(N3CCCCC3)c([N+](=O)[O-])c2)c(=O)n(-c2ccccc2)n1C`, the “hERG current change (%, negative = inhibition) at 1uM” value is given as 7.17%.

On to `COc1ccc(NC(C)=[N+](C)CCNS(=O)(=O)c2ccc(Cl)cc2)cc1.[I-]`, for which the “hERG current change (%, negative = inhibition) at 1uM” value is -59.5%.

With `CCOc1ccc(N2C(=O)C(Cl)=C(N3CCOCC3)C2=O)cc1`, the “hERG current change (%, negative = inhibition) at 1uM” value amounted to 12.6%.

For `COc1ccc(-c2nnc(SCC(=O)N/N=C/c3ccccc3C(=O)O)n2-c2ccccc2)cc1`, the “hERG current change (%, negative = inhibition) at 1uM” value is on record as 13.4%.

For `CCN(c1ccccc1)S(=O)(=O)c1ccc(Cl)c(C(=O)NCC2CCCO2)c1` (stereo not drawn), the “hERG current change (%, negative = inhibition) at 1uM” value was 2.1%.

As to `COC(=O)c1cc(NC2c3ccccc3C(=O)N2CCN2CCOCC2)cc(C(=O)OC)c1` (stereo not drawn), the “hERG current change (%, negative = inhibition) at 1uM” value came to 9.2%.

Consider `COc1ccc(C(C(=O)NC2CCCC2)N(C(=O)c2snc(C(N)=O)c2N)c2ccccc2OC)cc1OC` (stereo not drawn), for which the “hERG current change (%, negative = inhibition) at 1uM” value is recorded as 8.79%.

Regarding `CCn1c(=O)c([N+](=O)[O-])c(Cl)c2ccccc21`, the “hERG current change (%, negative = inhibition) at 1uM” value came to 19.1%.

Turning to `C/C=C/Cn1c(Br)nc2c1c(=O)n(C)c(=O)n2C`, the “hERG current change (%, negative = inhibition) at 1uM” value is on record as 10.7%.

Take `CC1Sc2ccc(S(=O)(=O)NCc3ccccc3)cc2NC1=O` (stereo not drawn): the “hERG current change (%, negative = inhibition) at 1uM” value was 4%.

As to `CC1CCCC(C)N1C(=O)CSc1nnc(NC(=O)Cc2cccs2)s1` (stereo not drawn), the “hERG current change (%, negative = inhibition) at 1uM” value turned out to be 5.08%.

In the case of `COC(=O)C1(Cc2ccc(O)cc2)OC(=O)C(O)=C1c1ccc(O)cc1` (stereo not drawn), the “hERG current change (%, negative = inhibition) at 1uM” value is given as 8.74%.

`O=C(Nc1ccccc1)Nc1ccc(Oc2cccnc2)nc1`: the “hERG current change (%, negative = inhibition) at 1uM” value is on record as 0.586%.

With `CC1(C)CC2CC(C)(CN2C(=O)NC(=O)c2ccccc2)C1` (stereo not drawn), the “hERG current change (%, negative = inhibition) at 1uM” value is reported as 1.21%.

In the case of `CNc1nc(N)nc(-c2cc(Cl)ccc2OC)n1`, the “hERG current change (%, negative = inhibition) at 1uM” value is recorded as 13.1%.

With `Cc1ccc(CSc2nc3ccncc3[nH]2)cc1`, the “hERG current change (%, negative = inhibition) at 1uM” value is listed as -12.6%.

As to `COc1ccccc1NC(=O)NCc1ccco1`, the “hERG current change (%, negative = inhibition) at 1uM” value is 17.4%.

`CN(C)c1cccc(C(=O)OCC(=O)NCc2ccco2)c1`: the “hERG current change (%, negative = inhibition) at 1uM” value was found to be 4.71%.

For `CCn1c(=O)cc(SCC(=O)Nc2cccc(C)n2)c2ccccc21`, the “hERG current change (%, negative = inhibition) at 1uM” value was 11.4%.

Turning to `COc1ccc(-c2cc(-c3nnc(-c4ccncc4)o3)c3ccccc3n2)cc1`, the “hERG current change (%, negative = inhibition) at 1uM” value turned out to be 4.1%.

`O=C(NCc1ccco1)c1ccc(COc2ccccc2Cl)cc1`: the “hERG current change (%, negative = inhibition) at 1uM” value is 2.96%.

As for `CC(=O)N1CCN(c2ccc(NC(=O)c3cc4ccccc4o3)cc2)CC1`, the “hERG current change (%, negative = inhibition) at 1uM” value is listed as 3.82%.

Take `COc1ccc(-n2nnc3c(=O)n(Cc4cc(C)ccc4C)cnc32)cc1`: the “hERG current change (%, negative = inhibition) at 1uM” value is -2.97%.

As to `COc1ccc(-n2c(SCC(=O)NNC(=O)c3ccccc3C)nnc2-c2ccncc2)cc1`, the “hERG current change (%, negative = inhibition) at 1uM” value was -1.64%.

Consider `COc1ccc(Cl)cc1NC(=O)CSc1nnc(COc2ccccc2)n1C`, for which the “hERG current change (%, negative = inhibition) at 1uM” value is given as -12.1%.

With `Cc1cc(C)n2nc(C(=O)NCc3ccco3)cc2n1`, the “hERG current change (%, negative = inhibition) at 1uM” value turned out to be 4.66%.

With `COC(=O)c1ccc(Oc2nc(C)cc(Oc3ccccc3)n2)cc1`, the “hERG current change (%, negative = inhibition) at 1uM” value is reported as 3.11%.

As for `CCSC1=C(C#N)C(c2ccc3c(c2)OCO3)C2=C(CCCC2=O)N1` (stereo not drawn), the “hERG current change (%, negative = inhibition) at 1uM” value is listed as -2.35%.

Turning to `Nc1nc(-c2ccc(S(=O)(=O)N3CCCCC3)cc2)cs1`, the “hERG current change (%, negative = inhibition) at 1uM” value was determined as 8.23%.

`CN(C)S(=O)(=O)Oc1ccc(C(=O)Nc2ccc([N+](=O)[O-])cc2)cc1`: the “hERG current change (%, negative = inhibition) at 1uM” value is recorded as -0.426%.

Consider `Cc1ccccc1Nc1nc(N)nc(CN(C)c2ccccc2)n1`, for which the “hERG current change (%, negative = inhibition) at 1uM” value amounted to 5.23%.
